{
  "source": "PubChem BioAssay AID1460",
  "about": "(National Center for Advancing Translational Sciences (NCATS), 2008)",
  "note": "Hit rate of the full screen: of about 270,000 compounds, about 5,800 (2.1%) were called active. The shares of active, inactive and inconclusive entries below differ from those in the screen. Calls follow the shape of the dose curve; as a rule, active = well fitted inhibition curve with a large enough effect; inconclusive = small, poorly fitted or top-dose-only effect; inactive = flat fitted curve, though single readings scatter. Potencies of inconclusive entries are doubtful fits and often do not repeat. Potency is read from the fitted curve at half-maximal effect; tags tell the direction and shape of the fitted curve.",
  "data": [
    {"target": "Microtubule-associated protein tau (Homo sapiens) (UniProt P10636)", "sequence (P10636 whole entry, looked up, the tested form may be a part)": "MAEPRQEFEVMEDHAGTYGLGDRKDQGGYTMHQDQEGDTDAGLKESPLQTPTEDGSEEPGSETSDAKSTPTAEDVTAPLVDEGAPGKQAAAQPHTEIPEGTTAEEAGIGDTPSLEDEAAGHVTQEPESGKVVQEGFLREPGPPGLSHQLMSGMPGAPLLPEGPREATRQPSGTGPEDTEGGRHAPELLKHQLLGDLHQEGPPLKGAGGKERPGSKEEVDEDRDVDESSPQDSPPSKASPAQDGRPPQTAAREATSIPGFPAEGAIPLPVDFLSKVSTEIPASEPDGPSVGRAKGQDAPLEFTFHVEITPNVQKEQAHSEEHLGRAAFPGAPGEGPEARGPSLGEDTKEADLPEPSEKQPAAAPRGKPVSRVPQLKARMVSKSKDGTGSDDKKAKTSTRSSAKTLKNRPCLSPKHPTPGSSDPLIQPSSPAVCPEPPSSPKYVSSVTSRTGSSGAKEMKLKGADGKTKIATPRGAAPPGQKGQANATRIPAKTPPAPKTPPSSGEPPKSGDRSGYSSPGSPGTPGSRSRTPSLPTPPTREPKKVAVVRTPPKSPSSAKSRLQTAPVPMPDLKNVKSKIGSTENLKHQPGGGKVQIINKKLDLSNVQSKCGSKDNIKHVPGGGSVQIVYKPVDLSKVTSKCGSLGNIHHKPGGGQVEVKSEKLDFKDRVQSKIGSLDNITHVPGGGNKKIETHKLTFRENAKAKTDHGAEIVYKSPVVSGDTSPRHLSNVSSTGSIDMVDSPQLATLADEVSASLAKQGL", "assay": "qHTS for Inhibitors of Tau Fibril Formation, Thioflavin T Binding; also: nearly all actives have a fitted effect of over 55% in size", "settings": "recombinant tau K18 P301L (four-repeat tau fragment), heparin-induced fibrillization, ThT fluorescence; series mostly up to 57.4 µM", "outline": "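Heparin-induced (20 uM) aggregation of recombinant human K18 P301L tau, 15 uM unlabeled with 0.24 uM labeled, pH 7 acetate buffer, 6 hr at 37 C with compound. Fibrils quantified by 30 uM ThT fluorescence after 1 hr ambient incubation.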", "values": [
      {"smiles": "COc1cc(/C=N/O)cc(Br)c1OS(=O)(=O)c1ccc(C)cc1", "Potency": "inconclusive: 12.6 µM [inhibitor, partial curve]"},
      {"smiles": "COc1cc(/C=C2\\S/C(=N/S(=O)(=O)Cc3ccccc3)NC2=O)c([N+](=O)[O-])cc1OC", "Potency": "inconclusive: 12.6 µM [inhibitor, partial curve]"},
      {"smiles": "CN(C)S(=O)(=O)c1cccc(-c2nnc(SCc3cc(Cl)cc4c3OCOC4)n2N)c1", "Potency": "inactive"},
      {"smiles": "Cc1cccc2nc(CSc3nnnn3-c3ccccc3)cn12", "Potency": "inactive"},
      {"smiles": "COc1ccc(C(=O)CCc2nc3ccccc3s2)cc1", "Potency": "inconclusive: 35.5 µM [inhibitor, single point]"},
      {"smiles": "COc1ccc(C(=O)NCC(=O)N/N=C/c2c(C)[nH]c3ccccc23)cc1OC", "Potency": "inconclusive: 11.2 µM [inhibitor, partial curve]"},
      {"smiles": "Cc1cccc(NC(=O)Nc2ccc3c(c2)N(C)C(=O)CS3)n1", "Potency": "inconclusive: 17.8 µM [inhibitor, partial curve]"},
      {"smiles": "COc1ccc(-c2ccc3c(N)c(C(=O)c4cccc(OC)c4)sc3n2)cc1", "Potency": "inconclusive: 1.41 µM [inhibitor, full curve]"},
      {"smiles": "CCc1ccccc1NC(=O)c1ccc(-n2c(C)ccc2C)cc1", "Potency": "inconclusive: 22.4 µM [inhibitor, partial curve]"},
      {"smiles": "COc1ccc2nc(-c3ccc(N)cc3)[nH]c2c1", "Potency": "inactive"},
      {"smiles": "COc1ccccc1CNC(=O)CSc1ncc2c(n1)-c1ccc(Cl)cc1N(Cc1ccccc1)S2(=O)=O", "Potency": "inconclusive: 15.8 µM [activator, partial curve]"},
      {"smiles": "O=C(CN1CCN(c2ccccc2)CC1)Nc1ccc(Oc2ccccc2)cc1", "Potency": "inconclusive: 20 µM [inhibitor, partial curve]"},
      {"smiles": "Cc1ccccc1Nc1nc(N)nc(-c2oc3ccccc3c2C)n1", "Potency": "inconclusive: 3.98 µM [inhibitor, full curve, poor fit]"},
      {"smiles": "CCN(C(=S)Nc1ccc(Oc2ccccc2)cc1)c1ccccc1", "Potency": "inactive"},
      {"smiles": "O=C(Cn1[nH]c(=O)c2ccccc2c1=O)OCC(=O)N(Cc1ccccc1)Cc1ccccc1", "Potency": "inconclusive: 17.8 µM [inhibitor, partial curve]"},
      {"smiles": "Cc1ccc(C(=O)O)cc1-c1ccc(C=C2C(=O)c3ccccc3C2=O)o1", "Potency": "inconclusive: 2 µM [inhibitor, full curve]"},
      {"smiles": "COc1ccc(CN2CCN(CCc3ccccc3)C(CCO)C2)c(O)c1", "note": "(stereo unspecified)", "Potency": "inconclusive: 12.6 µM [inhibitor, partial curve]"},
      {"smiles": "O=[N+]([O-])c1cccc(CNc2ccc3c(c2)CCC3)c1", "Potency": "inconclusive: 20 µM [inhibitor, partial curve]"},
      {"smiles": "Cc1ccc(NS(=O)(=O)c2cc(N)ccc2Cl)c(C)c1", "Potency": "inactive"},
      {"smiles": "CCc1ccc(-c2nc(CN3CCCC(C(=O)N4CCN(c5cc(Cl)ccc5C)CC4)C3)c(C)o2)cc1", "note": "(stereo unspecified)", "Potency": "inconclusive: 12.6 µM [inhibitor, partial curve]"},
      {"smiles": "COc1ccc(/C=N/NC(=O)c2ccncc2)c(C(=O)O)c1OC", "Potency": "inactive"},
      {"smiles": "COc1cc(CCC(=O)OCC(=O)Nc2ccccc2C(C)C)cc(OC)c1OC", "Potency": "inactive"},
      {"smiles": "O=C(CCCc1ccccc1)Nc1cccc(C(=O)O)c1", "Potency": "inactive"},
      {"smiles": "COc1ccc(OC)c(-c2cc(C(=O)NC(C)c3ccccc3)no2)c1", "note": "(stereo unspecified)", "Potency": "inactive"},
      {"smiles": "COc1ccc(Cl)cc1C(=O)Nc1cc(=O)n(C)c(=O)n1C", "Potency": "inconclusive: 7.94 µM [activator, single point]"},
      {"smiles": "COc1cccc(-c2ccc3c(N)c(C(=O)NCc4ccc(Cl)cc4)sc3n2)c1", "Potency": "inconclusive: 10 µM [inhibitor, partial curve]"},
      {"smiles": "Cc1ccc(C)c(S(=O)(=O)C(C#N)c2nc3ccccc3nc2N2CC(C)OC(C)C2)c1", "note": "(stereo unspecified)", "Potency": "inconclusive: 20 µM [inhibitor, partial curve]"},
      {"smiles": "CC(C)c1ccc(C2=C(O)c3ccccc3C(=O)C2=O)cc1", "Potency": "inconclusive: 22.4 µM [inhibitor, partial curve]"},
      {"smiles": "COc1ccc(C=Nc2cccc3c(=O)[nH][nH]c(=O)c23)c2ccccc12", "Potency": "inconclusive: 17.8 µM [inhibitor, partial curve, poor fit]"},
      {"smiles": "O=C(c1ccccc1)c1cc(Cl)ccc1N1C(=O)C=CC1=O", "Potency": "inactive"},
      {"smiles": "Cc1nc(-c2ccccc2)sc1-c1nnc(C2CC2)o1", "Potency": "inconclusive: 39.8 µM [inhibitor, single point]"},
      {"smiles": "CCOc1ccc(NC(=S)N(CCCN2CCCC2)Cc2cccn2Cc2ccc(Cl)cc2)cc1", "Potency": "inconclusive: 31.6 µM [inhibitor, partial curve, poor fit]"},
      {"smiles": "COc1cc(/C=N/n2c(-c3ccc4c(c3)NC(=O)CO4)csc2=Nc2cccc(C)c2)ccc1O", "Potency": "inactive"},
      {"smiles": "CCOC(=O)c1c(C)oc2c1c1c(c3ccccc32)OCN(Cc2cccnc2)C1", "Potency": "active: 17.8 µM"},
      {"smiles": "O=C1NC(c2ccccn2)Nc2sc3c(c21)CCC3", "note": "(stereo unspecified)", "Potency": "active: 20 µM"},
      {"smiles": "Cc1c(-c2ccc(O)cc2)nc2nc(-c3ccccc3)c(-c3ccccc3)nn12", "Potency": "inconclusive: 6.31 µM [inhibitor, partial curve]"},
      {"smiles": "COc1ccccc1C(=O)Nc1nnc(SCC(=O)Nc2ccc3c(c2)oc2ccccc23)s1", "Potency": "inconclusive: 17.8 µM [activator, partial curve]"},
      {"smiles": "CCOC(=O)N1CCC(N2Cc3cccc(C(=O)NCc4ccc5c(c4)OCO5)c3C2=O)CC1", "Potency": "inconclusive: 14.1 µM [inhibitor, single point]"},
      {"smiles": "Cc1onc(-c2ccc(F)cc2F)c1C(=O)Nc1cccc(C(F)(F)F)c1", "Potency": "inactive"},
      {"smiles": "COc1ccc(N2CSC3=C(C#N)C(c4cc(OC)ccc4OC)CC(=O)N3C2)c(OC)c1", "note": "(stereo unspecified)", "Potency": "active: 12.6 µM"},
      {"smiles": "NC(=O)C1CCN(C(=O)CN2CCc3ccccc32)CC1", "Potency": "inconclusive: 39.8 µM [inhibitor, single point]"},
      {"smiles": "Cc1cc(C)cc(Nc2nc3c([nH]2)c(=O)n(C)c(=O)n3C)c1", "Potency": "inconclusive: 12.6 µM [inhibitor, partial curve, poor fit]"},
      {"smiles": "CCNc1ccc(C(=O)OCC(=O)N(Cc2ccccc2)C(C)(C)C)cc1[N+](=O)[O-]", "Potency": "inconclusive: 12.6 µM [inhibitor, partial curve]"},
      {"smiles": "C/C(=C\\[C@@H](NP(=O)(c1ccccc1)c1ccccc1)c1ccccc1)CO[Si](c1ccccc1)(c1ccccc1)C(C)(C)C", "Potency": "inconclusive: 12.6 µM [inhibitor, partial curve, poor fit]"},
      {"smiles": "Cc1ccc2onc(CC(=O)N(C)c3ccccc3)c2c1", "Potency": "inconclusive: 8.91 µM [inhibitor, partial curve]"},
      {"smiles": "CCCCCC1(C)NC(=S)N(c2ccccc2)N1", "note": "(stereo unspecified)", "Potency": "inconclusive: 35.5 µM [inhibitor, partial curve]"},
      {"smiles": "CCN(CC)c1ccc(/C=C/c2nc3ccccc3s2)cc1", "Potency": "inconclusive: 7.08 µM [activator, partial curve]"},
      {"smiles": "COc1ccccc1CNC(=O)C1CCCN(S(=O)(=O)c2cccc3cccnc23)C1", "note": "(stereo unspecified)", "Potency": "inconclusive: 12.6 µM [inhibitor, partial curve]"},
      {"smiles": "COc1ccc(-c2c(O)c3c(OC)c4c(cc3oc2=O)OC(C)(C)C=C4)cc1", "Potency": "inconclusive: 10 µM [inhibitor, partial curve]"},
      {"smiles": "CN(Cc1ccccc1)C(=O)c1ccc2c(c1)OCO2", "Potency": "inactive"},
      {"smiles": "O=S(=O)(Nc1nc2ccccc2nc1NCc1ccco1)c1cccs1", "Potency": "inactive"},
      {"smiles": "COC(=O)C1=C(C)NC(=O)/C1=C\\c1cc(C)n(-c2ccc(F)cc2)c1C", "Potency": "active: 15.8 µM"},
      {"smiles": "CC(/C=C/c1ccc2c(c1)OCO2)=N/NC(=O)C1COc2ccccc2O1", "note": "(stereo unspecified)", "Potency": "inconclusive: 7.94 µM [inhibitor, full curve, poor fit]"},
      {"smiles": "O=C(N/N=C/c1cccc(O)c1)c1cc(-c2ccc3c(c2)OCO3)n[nH]1", "Potency": "inconclusive: 22.4 µM [activator, single point]"},
      {"smiles": "Cc1c(Nc2c3ccccc3nc3ccccc23)c(=O)n(-c2ccccc2)n1C", "Potency": "inconclusive: 14.1 µM [inhibitor, partial curve, poor fit]"},
      {"smiles": "Cc1ccc2c(c1)S/C(=C/c1ccc[n+](CCO)c1)N2C", "Potency": "inconclusive: 22.4 µM [inhibitor, partial curve]"},
      {"smiles": "O=C(Nc1ccc(-c2nc3ncccc3o2)cc1)c1ccco1", "Potency": "inconclusive: 0.398 µM [inhibitor, full curve]"},
      {"smiles": "Cc1c(/C=N/NC(=O)COc2ccccc2[N+](=O)[O-])c2ccccc2n1C", "Potency": "inconclusive: 3.55 µM [inhibitor, single point]"},
      {"smiles": "Cc1ccc(S(=O)(=O)N(C(=O)c2ccncc2)c2ccc(OC(=O)c3ccncc3)c3ccccc23)c(C)c1", "Potency": "active: 14.1 µM"},
      {"smiles": "O=C(CN1CCSCC1)N/N=C/c1ccc(F)c(F)c1", "Potency": "inactive"},
      {"smiles": "Cc1nn(C)c2c1c(C(F)(F)F)cc(=O)n2Cc1cccc(Br)c1", "Potency": "inactive"},
      {"smiles": "CSc1nsc(/C=C/Nc2ccc(F)cc2)c1C#N", "Potency": "inconclusive: 28.2 µM [inhibitor, partial curve]"},
      {"smiles": "COc1cc(O)c2c(=O)c(O)c(-c3ccc(O)c(O)c3)oc2c1", "Potency": "active: 5.01 µM"},
      {"smiles": "O=C(/C=C/c1ccccn1)c1ccc(Br)cc1O", "Potency": "inconclusive: 39.8 µM [inhibitor, single point]"},
      {"smiles": "O=C(CCc1nc2cccnc2n1Cc1cccs1)Nc1cccc(Cl)c1", "Potency": "inconclusive: 1.26 µM [inhibitor, partial curve, poor fit]"},
      {"smiles": "C#CCOCCOCCOCCNc1nc(N2CCN(C(=O)[C@H](Cc3cc4ccccc4[nH]3)n3cc([C@@H](N)CC(C)C)nn3)CC2)nc(N2CCN(C(=O)[C@H](Cc3cc4ccccc4[nH]3)n3cc([C@@H](N)CC(C)C)nn3)CC2)n1", "Potency": "inconclusive: 8.91 µM [inhibitor, single point]"}
    ]}
  ]
}
